Laboratory results from the supplement of paper PMC10126150.
Values marked as one replicate rest on one cluster of the flow cell; about a third of the high ones do not repeat.

Test system: ATP
Test: switch fluorescence ratio, 500 uM ATP over buffer (Cy3 cluster intensity, sum of 5 cycles each) (fold (ratio)); higher = stronger signal-on switching upon ATP binding; sequences stand for … in TCGTCGGCAGCGTCAGATGTGTATAAGAGACAGTTTTTTTTTTTTTTTTTTTTTTTTT…TC
Conditions: aptamer strand: ATP DNA aptamer (quencher-CACCTGGGGGAGTATTGCGGAGGAAGG + anchor), 100 nM annealed; ATP concentration: 500 uM; one replicate
In short: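 The fluorescence ratio divides summed target-cycle Cy3 intensity by summed buffer-cycle Cy3 intensity for each cluster and is averaged per switch-domain sequence. Cy3-labelled switching-strand clusters on a modified Illumina MiSeq flow-cell were annealed to 100 nM quencher-labelled ATP aptamer, then imaged in selection buffer and again after 15 min with 500 uM ATP at 22 °C. Five such cycles were run, with NaOH stripping and re-annealing between them, and clusters outside 100-1000 RFU were excluded.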
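Note: ATP exposure 15 min at 22 °C before imaging.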

Sequence	switch fluorescence ratio
TCTCGTTAAG	1.02
AACTTTAAA	1
TATGCAGGAG	1.03
CGTCCTGGTA	1.07
AGCTGCGATT	1.01
AAATTACGGT	1.09
CTACCGGCTC	1.14
GGGGTGCCGT	0.964
TGTCTCTTTA	0.925
AAACGGAGG	0.981
GATTGCGATT	1.03
GGTTGCCCGT	0.97
TGTGAATAAT	0.978
ATGGTCCGTT	0.996
GAGTTTCGAT	0.971
CTGGGGTAGA	1.06
CTTCTTTCGC	2.63
GATTGACGTT	1.01
GGGCAACTT	1.01
ATCGCTCGCG	1.03
AGTGACTCCG	1.32
CTCGGATTGA	1
ATATGGCAGT	0.932
TCGATATACA	1.06
ATGGGGTTGA	1.05
CAAGAGGATC	1

Sequence	switch fluorescence ratio
AGACGCGGCT	1.01
TAATAGGAA	0.926
CGGATTTAGC	0.996
GTTGCGTGGT	1.02
AAGTGTCCTT	1
TCCCGTGGTG	3.04
CATGGAGAAC	1
TCATGTGCCC	0.988
CTGGTTCGTG	1
AACCCTATGG	1.01
TGCAAGAT	1.02
ATGTAGATCA	1.04
TTTTAAGTAG	1.01
GGCTGCATAG	0.976
AATTGATAAC	0.987
TAGACGGCCA	1.04
TATATATCAC	1.03
CTTGAGGACA	1.01
TAGTGGACAC	1.05
GATTGGGATC	0.96
GAATCGTCTT	1
AAGAGGGTCA	1
ATAAATATTC	0.996
AGAGGTGTTC	0.971
TACTTATTG	0.993
CTGGACCACA	0.994

Sequence	switch fluorescence ratio
TTCGATATCC	0.976
ATCAGGTTTA	1
TCGAATGGT	1.01
GGGTACGCAA	1.91
CACGATTAAT	1.06
TTAATTGCTG	0.922
ACGTTCCCTC	1.11
ACGGATAGCG	0.98
TTAGAGAGCC	1.01
CAGGTATGGA	0.989
CAGTTACCGG	0.999
GGACTCGGCC	0.99
ATGAGTAACA	0.999
AGGACCAGCC	1.14
GTCGACGCCA	1.13
ATGGACAGCA	1.03
CCAATGCCCA	1.05
AACCGCCGGG	1.04
ACCAGCGGC	0.962
CCGCGATGGC	2.23
AGGAAGTCA	0.962
GGGCTGGATA	0.994
TCCCTGGTAC	1.7
TTGTCGGGTA	1
GTTGCGCTCT	1.09
CCGAATTTAG	1.06

Sequence	switch fluorescence ratio
AAGCCTTGAA	1.02
CGTTCCTGTG	1.08
ATCCGGTCGT	0.977
TGGTCAATGC	1.83
AAGACCCTTC	1.06
TACCTTTGAC	1.12
GATTTTCGGT	1.04
TGGAGCTCGG	0.999
TCGCGGGAGT	0.97
TCATGGTCTT	1.02
ACTCGGGGCC	0.994
TTAGTTCAAG	0.966
TTTTACGCGG	0.996
ATTATCCGAT	1.01
TCCAACATGC	1.28
GAGGAATAAC	1.07
CGGTATGG	0.985
ATCGTGG	0.997
AGGAAAGAAG	1
TGGTGCCTTT	0.99
AAGGGCTGAC	1.09
AACTTCTC	1.15
TATTCGGGTT	0.921
TACTAGTTG	0.992
TCCACTACCC	1.25
TTTCAATGA	1.01

Sequence	switch fluorescence ratio
CTCCAGGACG	1.2
ATGAGCTAGA	0.96
CGAGTCCAAT	0.979
AGAGGCAG	0.955
CAGGTACACT	1.03
GGGAATGCAC	1.05
TCTATGGGTA	1.02
CAGGTTGCAG	1.01
TCGTGGGAA	0.971
CCACTGTAGG	1.09
ATGGGCATGA	1.01
TTCATTGTAC	1.04
CATAGGGTGG	1
GGGGAGTACC	0.989
ATAGAAGGCA	1.01
ATTAGCCACT	1.05
TTGTAATTCA	1.01
GGCTTACATG	0.985
TAGATGAGTA	0.988
TGCTAGGACT	1
GGCGACGAGC	0.965
TAAAGTGAAC	1.02
AAGCTTACTG	1.07
GGTTTTTTT	0.979
CAGTAGGTTT	1.03
GTATATGGTA	1.01

Sequence	switch fluorescence ratio
GATATTTATT	1.02
ATGCTCTGCT	1.02
AGGGAGCGTG	0.965
GAGGTGATTG	0.984
GGATACTT	0.997
TTGTGTCGGT	0.977
CAACACGTTT	0.984
GTTTTGACTA	0.997
AGATCCTATA	0.967
TAGCGTTCCC	1.16
ACTTAGTATT	1.03
GCGATCTTGT	0.964
GTTGTATTCG	0.931
GGCGTATAGG	0.985
CGACTAAGAT	1.03
TTTTACTGGA	1.02
TTGGGAGATC	0.981
GTAGACAAGG	0.983
CGAATTAACG	0.985
AAATAGTAGT	0.99
TCTGCTGACG	1.05
TAGGTCACTG	0.979
GTCGTTTACT	0.99
CAAACGTAGT	1.19
ACGGTGTCAA	1.04
GCTACTTCAT	1.06

Sequence	switch fluorescence ratio
GGCATCTAAC	1.02
ATGGTACCC	1.03
CTAGCCTGTG	1
TCTTTCGAGT	1.05
CATTTATCAC	0.984
ACCAGGAGAA	1.04
ACAAAAGTG	0.97
TATTGAGTTC	1
GTTCGCAGGA	0.964
TATTGGGGTA	1.02
TTTGGGCA	0.994
AGGATTAGAG	1.01
GCTTTCGCCG	1.06
CACCTATTTA	1.05
TATCGCGATT	1.02
ATTTTCCAAT	1.02
GTATGTATCA	0.939
TATGTGAATA	0.97
ATAATGTCAA	0.994
GGTGGAAAGA	0.982
TGCCGCGACG	1.05
AGGGTGGAG	1.06
GCTAATGAAA	0.971
TCAATCGTTC	0.984
CAGGTGTGGT	1.43
TAGAAGCTCA	1.03

Sequence	switch fluorescence ratio
AACCGGGCTA	0.993
CGGCTATTGA	1.01
ATACAGGACT	1.08
ACGTCCCCCA	1.75
GATGGGACTA	1.01
ACTTCAACGA	1.08
ATTAAATTCA	0.995
ATTTCAGTTT	1.01
GAGGGCAGTG	0.974
TAGGGATCA	1.01
AGCTTGTGAC	1.04
GGATTAACAC	1.05
CATTTACAAC	1
CCGTTGCGGG	1.07
AGTTCTCGCA	1.06
AAAAGTCTGG	0.932
TGTGTCCAGC	1.05
ACTGATGCTT	1.03
GCGAGGTTAG	1
